The structures appear in SMILES notation. Screen size: about 310,000 compounds; about 2,200 (0.71%) showed an effect of 50% or more. The effect is printed as a negative number. Some of the results follow.

Here are results for 56 molecules from paper PMC4336329 (PLoS ONE, 2015).

The assay deals with human ether-à-go-go-related gene (hERG) potassium channel (human, UniProt Q12809). Description: primary screen, population patch clamp on CHO cells stably expressing hERG.
human ether-à-go-go-related gene (hERG) potassium channel, sequence (Q12809 whole entry, looked up): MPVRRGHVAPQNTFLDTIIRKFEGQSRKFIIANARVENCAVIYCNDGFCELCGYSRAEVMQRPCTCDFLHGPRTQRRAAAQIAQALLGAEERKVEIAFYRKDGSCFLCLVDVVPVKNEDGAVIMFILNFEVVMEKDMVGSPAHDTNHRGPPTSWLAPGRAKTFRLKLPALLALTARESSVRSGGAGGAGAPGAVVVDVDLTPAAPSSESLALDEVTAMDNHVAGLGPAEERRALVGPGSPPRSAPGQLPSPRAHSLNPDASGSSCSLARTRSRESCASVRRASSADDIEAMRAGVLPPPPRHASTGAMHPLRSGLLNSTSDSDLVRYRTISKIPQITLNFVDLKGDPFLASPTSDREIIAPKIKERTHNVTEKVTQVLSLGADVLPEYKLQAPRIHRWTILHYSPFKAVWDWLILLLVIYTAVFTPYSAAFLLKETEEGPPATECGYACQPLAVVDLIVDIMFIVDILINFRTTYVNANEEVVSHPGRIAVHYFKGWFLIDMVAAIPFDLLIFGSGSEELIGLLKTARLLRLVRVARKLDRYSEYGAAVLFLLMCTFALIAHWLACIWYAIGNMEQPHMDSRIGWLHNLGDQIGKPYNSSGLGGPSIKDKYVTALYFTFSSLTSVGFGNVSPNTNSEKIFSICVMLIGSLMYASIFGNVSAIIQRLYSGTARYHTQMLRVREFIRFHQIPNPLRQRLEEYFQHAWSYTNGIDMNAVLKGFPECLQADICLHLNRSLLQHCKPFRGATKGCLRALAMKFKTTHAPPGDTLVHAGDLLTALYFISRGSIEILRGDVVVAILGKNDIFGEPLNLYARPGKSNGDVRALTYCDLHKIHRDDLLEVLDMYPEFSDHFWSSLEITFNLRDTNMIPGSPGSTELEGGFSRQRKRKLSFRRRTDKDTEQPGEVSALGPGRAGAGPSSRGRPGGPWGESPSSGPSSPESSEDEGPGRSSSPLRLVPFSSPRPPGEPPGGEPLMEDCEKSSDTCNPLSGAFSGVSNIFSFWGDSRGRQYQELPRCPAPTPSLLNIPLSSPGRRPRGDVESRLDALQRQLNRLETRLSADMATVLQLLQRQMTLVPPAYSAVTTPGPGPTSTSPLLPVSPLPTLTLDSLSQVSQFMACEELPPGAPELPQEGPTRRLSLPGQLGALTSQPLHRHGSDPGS
Consider `O=C(Cn1nnc2ccccc2c1=O)N[C@@H](Cc1ccccc1)C(=O)O`, for which the “hERG current change (%, negative = inhibition) at 1uM” value is listed as 13%. On to `Nn1c(SCc2cccc(F)c2)nnc1-c1cccnc1`, for which the “hERG current change (%, negative = inhibition) at 1uM” value stood at 7.92%. As for `CCC1(c2ccc(OC)cc2)NC(=O)N(CC(=O)NC2CCCCC2C)C1=O` (centres unmarked), the “hERG current change (%, negative = inhibition) at 1uM” value is 2.68%.

On to `O=C(CNC(=O)c1cccnc1)N=Nc1c(O)[nH]c2c(Br)cc(Br)cc12`, for which the “hERG current change (%, negative = inhibition) at 1uM” value is -1.88%. For `COc1ccc(Oc2nnc(-c3ccc(C)cc3)c3ccccc23)cc1` the value was 14%; for `O=C(Nc1ccccc1N1CCCCC1)c1ccc(-c2ccc(Cl)cc2)o1`, -2.09%; for `Cc1nc2ccc(Cl)cc2c(=O)n1-c1ccc([N+](=O)[O-])cc1`, 7.13%. For `CCN1CCN(S(=O)(=O)c2ccc(Cl)c(C(=O)N(C)Cc3cccc(OC)c3)c2)CC1` the value was 6.8%; for `O=C(O)CCCNC(=O)c1nn(Cc2ccccc2)c(=O)c2ccccc12`, 14%; for `O=c1cc(-c2ccccc2)oc2ccc(O)cc12`, 4.17%.

As to `COC(=O)c1sc(N)c(C(=O)OC)c1COC(=O)C1CC(=O)N(Cc2ccco2)C1` (centres unmarked), the “hERG current change (%, negative = inhibition) at 1uM” value came out at 10.6%. Then `Cc1nc(C)c(CCNC(=O)c2ccccc2Br)s1`, with 6.33%.

As to `CCN(CC)CCCN=Cc1c(-c2ccccc2)[nH]n(-c2nc3ccccc3s2)c1=O`, the “hERG current change (%, negative = inhibition) at 1uM” value was -81.7%. Then `CCOC(=O)CN1C(=O)N[C@@H](CCc2ccccc2)C(C(C)=O)=C1C`, with 1.35%.

As to `CC(C)CC(OC(=O)c1ccco1)C(=O)NCC1CCCO1` (centres unmarked), the “hERG current change (%, negative = inhibition) at 1uM” value is 18.1%.

Turning to `CN(C)c1ccc(Nc2c3c4c(cccc4n(C)c2=O)C(=O)c2ccccc2-3)cc1`, the “hERG current change (%, negative = inhibition) at 1uM” value was 14.5%. For `Cc1cccc(NC(=O)C2(C)CC3c4ccccc4C2c2ccccc23)c1C` (centres unmarked) the value was 7.61%; for `CCC(=O)N/N=C(\C)CC(=O)Nc1ccccc1-c1ccccc1`, 3.9%; for `CCOc1ccc(CCNC(=O)C2CCCN(C(=O)N(C)C)C2)cc1OCC` (centres unmarked), 2.22%. Then `CSc1ccc(C(=O)C2CCCN(C(=O)CCn3cncn3)C2)cc1` (centres unmarked), with 0.648%. Then `O=c1c2cc([N+](=O)[O-])ccc2nc(CN2CCN(c3ccccn3)CC2)n1-c1ccccc1F`, with 8.49%. Turning to `O=S(=O)(c1cccc(NC(=S)Nc2ccc(Br)cc2Cl)c1)N1CCOCC1`, the “hERG current change (%, negative = inhibition) at 1uM” value is recorded as 7.43%.

As to `CC(=O)c1coc2c1cc(O)c1ccccc12`, the “hERG current change (%, negative = inhibition) at 1uM” value was found to be 16.5%. Then `O=S1(=O)N=C(N2CCN(Cc3ccc4c(c3)OCO4)CC2)c2ccccc21`, with 3.01%; and `CC(OC(=O)CCCC(=O)Nc1ccccc1)C(=O)c1ccccc1` (centres unmarked), with 9.71%.

Take `COc1ccc(C2/C(=C(/O)c3ccc(OC(C)C)cc3)C(=O)C(=O)N2CCCN2CCOCC2)cc1` (centres unmarked): the “hERG current change (%, negative = inhibition) at 1uM” value is 6.08%. For `COc1ccccc1CNC(=O)CSc1n[nH]c(N)n1` the value was 14.4%. For `CC(C)(C)n1nnnc1C(c1ccncc1)N(Cc1ccccc1)Cc1ccco1` (centres unmarked) the value was 1.56%; for `CCCCN(CC)CCCNC(=O)C1c2ccccc2C(=O)N(C)C1c1cn(C)c2ccccc12` (centres unmarked), -39.1%; for `CCN(CC)C(=O)CSc1nnc(-c2cc(OC)cc(OC)c2)o1`, 10.4%. Consider `Cc1csc(=O)n1CC(=O)OCC(=O)NNC(=O)c1ccc([N+](=O)[O-])cc1`, for which the “hERG current change (%, negative = inhibition) at 1uM” value came out at 1.14%.

For the molecule `O=Cc1ccc(-c2cccc([N+](=O)[O-])c2)o1`, the “hERG current change (%, negative = inhibition) at 1uM” value was 10.2%. Then `CCCCN1CCNC1=S`, with 4.37%; and `COc1ccc(N(C(=O)CNC(=O)c2ccco2)C(C(=O)NC2CCCC2)c2ccncc2)cc1` (centres unmarked), with 12.3%; and `CCC(NC(=O)c1cc(COc2c(F)cccc2F)on1)c1ccncc1` (centres unmarked), with 10.7%.

Consider `CCCn1c(=O)c(C(=O)NCC2CCCO2)c(O)c2ccccc21` (centres unmarked), for which the “hERG current change (%, negative = inhibition) at 1uM” value amounted to 2.17%. As for `O=C(N/C(=C\c1ccc2c(c1)OCO2)C(=O)N1CCOCC1)c1ccccc1Br`, the “hERG current change (%, negative = inhibition) at 1uM” value was 9.23%. For `COC(=O)c1c(-n2cnnn2)sc(C)c1C` the value was 12.7%; for `Cc1cc(C)c(OCCOCCN2CCN(C)CC2)c(Cl)c1.O=C(O)C(=O)O`, 9.6%. For `CN1N=C(c2ccc(F)c(F)c2)CSC1=NCc1ccccc1` the value was 16.4%; for `NC(=O)C1CCN(c2ncccc2[N+](=O)[O-])CC1`, 10.3%. For `O=C(Nc1cc(Cl)ccc1C(=O)O)c1ccc(CN2C(=O)c3ccccc3C2=O)cc1` the value was 20.8%; for `CC(NC(=O)COC(=O)[C@@H]1CCCN1S(=O)(=O)c1ccccc1F)C12CC3CC(CC(C3)C1)C2` (some centres unmarked), 14.5%. With `CCCCCCCCOC(=O)/C=C/c1c(C)[nH]c(=O)[nH]c1=O`, the “hERG current change (%, negative = inhibition) at 1uM” value is reported as 3.4%.

Consider `CN(C)N=Nc1ccc(S(=O)(=O)N2CCSC2C(=O)O)cc1` (centres unmarked), for which the “hERG current change (%, negative = inhibition) at 1uM” value stood at 4.16%.

Take `S=c1[nH]nc(-c2ccc3ccccc3n2)o1`: the “hERG current change (%, negative = inhibition) at 1uM” value is on record as 13.3%. For `O=C(NCCn1cccn1)c1ccc(OC2CCN(C(=O)C3CC3)CC2)cc1` the value was 12%; for `O=C(O)/C=C/c1cn(-c2ncc(C(F)(F)F)cc2Cl)c2ccccc12`, 11.6%.

Regarding `COc1ccc(NC(=O)COC(=O)C2CCN(S(=O)(=O)c3cccs3)CC2)cc1`, the “hERG current change (%, negative = inhibition) at 1uM” value was -0.894%. Then `Cn1c(=O)oc2cc(S(=O)(=O)NC3CCN(Cc4ccccc4)CC3)ccc21`, with -4.35%; and `COc1cc(/C=N\NC(=O)OC(C)(C)C)ccc1OC(=O)c1ccco1`, with 22.6%; and `N#CCc1ccc(OC(=O)c2cccnc2)cc1`, with 9.04%. On to `COc1ccc(C(=O)NC2CCC(O)CC2)cc1S(=O)(=O)NCc1ccc(Cl)cc1` (centres unmarked), for which the “hERG current change (%, negative = inhibition) at 1uM” value is given as -0.258%. Then `COc1ccc(N2CCOCC2)c(NC(=O)c2cccnc2)c1`, with 12.1%; and `O=C(COC(=O)c1cccc(S(=O)(=O)N2CCOCC2)c1)Nc1ccc2c(c1)OCO2`, with 6.57%. Regarding `COC(=O)C(CSCc1ccccc1)NC(=O)CSc1nc(C)cc(=O)[nH]1` (centres unmarked), the “hERG current change (%, negative = inhibition) at 1uM” value was found to be 17.4%.
